Results from PubChem BioAssay AID651820 (National Center for Advancing Translational Sciences (NCATS), 2012).
The campaign covered roughly 340,000 compounds. About 12,000 (3.5%) were called active. Inconclusive means that the source gave no clear call. Such entries were picked first, then a sample of the others. The call rests on the fitted dose curve; in most records, active means well fitted inhibition curve with a large enough effect; inconclusive means small, poorly fitted or top-dose-only effect, or another doubt; inactive means no such curve, though single readings can be large or run the other way. No potency is given beside an inconclusive call; the fits are too rough.

assay: qHTS Assay for Inhibitors of Hepatitis C Virus (HCV); conditions: Huh7.5.1 HCVcc-Cre (HCVcc is cell-culture hepatitis C virus) infection, luciferase reporter, 44 h; series mostly up to 41.8 µM
Outline: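 Whole-lifecycle infectious HCVcc-Cre system; cells 1,000/well, compound then virus (~0.5 moi) added 4 h after plating, 44 h culture. Luciferase read 15 sec following 15 min substrate incubation, room temp.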
Potency means the concentration at half of the fitted maximal effect; tags describe the fitted curve by direction and shape.

| SMILES | Potency |
| --- | --- |
| COc1ccc(CNc2ncc(-c3ccc(Br)cc3)n2C)cc1OC | inconclusive [inhibitor, single point] |
| Cc1[nH]c2ccccc2c1/C=N/NC(=O)c1cc(-c2ccncc2)nc2ccccc12 | active: 10 µM |
| CCOc1ccc(C(=O)NC(=S)Nc2cccc(NC(=O)c3ccco3)c2)cc1[N+](=O)[O-] | inconclusive [inhibitor, partial curve, poor fit] |
| O=C(CCCc1nc(-c2ccc(Cl)cc2)no1)N1CCOCC1 | inconclusive [inhibitor, single point] |
| Cc1c(C)n(CCCN(C)C)c2ncnc(Nc3ccc(F)cc3)c12 | inconclusive [inhibitor, single point] |
| O=C(CCN1C(=O)/C(=C/c2ccccc2Cl)SC1=S)NC1C=CS(=O)(=O)C1 (configuration not stated) | inconclusive [inhibitor, single point] |
| Cc1cc(C)c2nc(N(CCCN(C)C)C(=O)c3ccc4c(c3)OCCO4)sc2c1 | active: 11.2 µM |
| CCN(C(=O)COC(=O)c1ccc(O)cc1)c1cccc2ccccc12 | inconclusive [inhibitor, single point] |
| O=C1c2ccccc2C(=O)c2cc(S(=O)(=O)Nc3ccccc3)ccc21 | inconclusive [inhibitor, single point] |
| O=C1N[C@@H](Cc2c[nH]c3ccccc23)COC(=O)[C@H](Cc2ccc(F)cc2)C/C=C\C[C@@H]1CC(=O)N(CCO)Cc1ccccc1 | inconclusive [inhibitor, single point] |
| Oc1ccc(/C=N/n2c3ccccc3c3ccccc32)cc1 | active: 10 µM |
| COc1ccc(NC(=O)CCCn2c(=O)c3sccc3n(Cc3ccccc3)c2=O)cc1 | inconclusive [inhibitor, single point] |
| CN1C(=O)/C(=C2\SC(=S)N(NC(=O)c3cccnc3)C2=O)c2ccccc21 | inactive |
| CC1CCN(c2nc3nonc3nc2Nc2ccc(F)cc2)CC1 | active: 11.2 µM |
| O=C(Nc1cc(Cl)cc(Cl)c1)c1coc(=O)c(Br)c1 | inactive |
| COc1ccc(Br)cc1C(=O)Nc1cccc(NC(=O)c2ccco2)c1 | inconclusive [inhibitor, partial curve] |
| COc1ccccc1NC(=O)COC(=O)c1cc([N+](=O)[O-])ccc1N1CCCC1 | active: 12.6 µM |
| N#Cc1ccc(C(=O)CSc2n[nH]c(=O)n2Cc2ccco2)cc1 | inactive |
| Cn1nc(C(C)(C)C)cc1C(=O)NCc1ccc(N2CCCC2=O)cc1 | inconclusive [inhibitor, full curve] |
| COc1ccc(C(=O)COC(=O)c2ccc(Cl)nc2)c(OC)c1 | inconclusive [inhibitor, single point] |
| CCN(CC)c1ccc(C(=O)N/N=C(\C)c2ccc(O)cc2)cc1 | inactive |
| CCC1(c2ccc(F)cc2)NC(=O)N(CC(=O)N2CCN(S(=O)(=O)c3ccc(C)cc3)CC2)C1=O (configuration not stated) | inconclusive [inhibitor, single point] |
| O=S(=O)(NCCSc1nnnn1-c1ccccc1)c1cccs1 | inconclusive [inhibitor, partial curve] |
| CCN(CC)S(=O)(=O)c1ccc(NC(=O)C(OC)c2ccccc2)cc1 (configuration not stated) | inconclusive [inhibitor, partial curve] |

| SMILES | Potency |
| --- | --- |
| CCOC(=O)c1nn2c(C(F)(F)F)cc(-c3ccc(OC)cc3)nc2c1Br | inconclusive [inhibitor, single point] |
| COc1ccc(C(=O)Nc2cc(OC)c(NC(=O)c3ccco3)cc2OC)cc1 | inconclusive [inhibitor, partial curve] |
| CCc1cccc(NC(=O)C2CCN(S(=O)(=O)c3cccs3)CC2)c1 | inconclusive [inhibitor, partial curve] |
| CCN1CCN(c2ccc(S(=O)(=O)N3CCCCC3)cc2NC(=O)c2ccc(OC(F)F)cc2)CC1 | inconclusive [inhibitor, single point] |
| O=C(CSc1nnc(-c2ccco2)o1)NC1CC2CCC1C2 (configuration not stated) | inconclusive [inhibitor, full curve] |
| O=C(Nc1ccn(Cc2c(F)c(F)c(F)c(F)c2F)n1)c1ccc(COc2ccccc2Cl)cc1 | inconclusive [inhibitor, partial curve] |
| COC(=O)c1ccccc1NC(=O)c1ccco1 | inconclusive [inhibitor, single point] |
| COc1cc(CN2CCCC(C(=O)Nc3ccccc3Oc3cccnc3)C2)ccc1F (configuration not stated) | inconclusive [inhibitor, single point] |
| CCOC(=O)Cn1nc(-c2ccc(Cl)cc2)ccc1=O | inconclusive [inhibitor, single point] |
| CCOc1ccc(CN(C)CC(=O)Nc2ccccc2C(=O)NC2CC2)cc1 | inconclusive [inhibitor, partial curve, poor fit] |
| CN1CCc2nc3ccccc3c(C(=O)OCC(=O)N(CCC#N)c3ccccc3)c2C1 | inactive |
| CCCn1c(N)c(C(=O)CSc2nc(C)cs2)c(=O)n(C)c1=O | inconclusive [inhibitor, single point] |
| CCc1cccc(C)c1NC(=O)C1CCCO1 (configuration not stated) | inactive |
| CCOC(=O)C1=C(C)NC(=O)NC1c1cc2c(cc1Br)OCO2 (configuration not stated) | inconclusive [inhibitor, partial curve, poor fit] |
| CCCCN(C)CCNC(=O)c1cc2c(=O)[nH]c3ccccc3c2n1C | inconclusive [inhibitor, single point] |
| O=C(Nc1ccc(-c2nc3ccccc3o2)c(O)c1)c1cc(-n2cnnc2)ccc1Cl | active: 11.2 µM |
| CC(=O)Nc1ccc(/C=N/NC(=S)NC(C)C)cc1 | inactive |
| S=C(NCC1CCCO1)N1CCN(c2nc(-c3ccc(Cl)cc3)cs2)CC1 (configuration not stated) | inconclusive [inhibitor, partial curve] |
| COc1ccc(OCc2cc(C(=O)NC3CCOCC3)no2)c2ccccc12 | inconclusive [inhibitor, single point] |
| Cc1cc(C)c(C#N)c(Oc2ccccc2Br)n1 | inactive |
| O=C(CSCCO)Nc1ccccc1 | inactive |
| Cc1ccc(NC(=O)COc2coc(CN3CCc4ccccc43)cc2=O)cc1Cl | inconclusive [inhibitor, single point] |
| c1ccc(N2CCN(c3nc(NCc4ccco4)c4ccccc4n3)CC2)cc1 | active: 1 µM |
| CCOC(=O)c1cnn(-c2ccc(Cl)cc2)c1C1CCN(C(=O)OC(C)(C)C)CC1 | active: 12.6 µM |

| SMILES | Potency |
| --- | --- |
| COc1ccc(S(=O)(=O)N2CCN(Cc3cccc(OC)c3)CC2)cc1 | inactive |
| COC(=O)C(C(=O)OC)C1C=CCN(C(C)=O)C1 (configuration not stated) | inactive |
| Cc1ccc(-c2nnc(SCC(=O)N/N=C/c3c(C)nn(-c4ccccc4)c3C)n2-c2ccccc2)cc1 | active: 11.2 µM |
| O=c1oc2ccccc2cc1-c1csc(Nc2ccc(O)cc2)n1 | active: 31.6 µM |
| CCN(CC)CCn1c2ccc(Cl)cc2c2nc(C)sc21 | inconclusive [inhibitor, full curve] |
| O=C(N/N=C/c1cc(Br)ccc1O)C(=O)Nc1ccccc1OC(F)(F)C(F)F | inconclusive [inhibitor, single point] |
| Cc1cc(NC(=O)c2cc(-c3ccncc3)nc3ccccc23)ccc1Br | active: 8.91 µM |
| Cc1cccc(NC(=O)c2ccccn2)c1C | inactive |
| Cn1cc([N+](=O)[O-])c(C(=O)N/N=C/c2ccc3c(c2)OCO3)n1 | inactive |
| CNc1cc(N2CCCC2)ccc1[N+](=O)[O-] | active: 25.1 µM |
| Cc1ccc(-c2nc(=S)c3c(n2Cc2ccco2)CCCC3)cc1 | inactive |
| Cc1ccsc1C(=O)OCC(=O)Nc1sccc1C(N)=O | inconclusive [inhibitor, single point] |
| O=C(c1ccc(Cl)cc1)C(CN1CCCCC1)c1ccccc1 (configuration not stated) | active: 15.8 µM |
| COC(=O)c1ccc(OCC(=O)c2ccc(C)c(C)c2)cc1 | inactive |
| COc1cc(/C=N/NC(=O)C2c3ccccc3Oc3ccccc32)ccc1O | inactive |
| CC1CCCN(S(=O)(=O)c2cccc(C(=O)OCC(=O)N(C)Cc3c(F)cccc3Cl)c2)C1 (configuration not stated) | inactive |
| Cc1ccc(OCCOc2ccc(Br)cc2)c([N+](=O)[O-])n1 | inconclusive [inhibitor, single point] |
| CN1CCN(c2nc(-c3cccc([N+](=O)[O-])c3)nc3ccccc23)CC1 | inconclusive [inhibitor, single point] |
| Cn1cnc(C(=O)NCc2ccc(CNC(=O)OC(C)(C)C)cc2)c1C(=O)NCc1ccc(CNC(=O)OC(C)(C)C)cc1 | inconclusive [inhibitor, single point] |
| O=C(c1cc(COc2cccc3cnccc23)on1)N1CCCC(CCCO)C1 (configuration not stated) | active: 1.41 µM |
| N#Cc1ccc(CN2CCN(C(=O)c3ccc(S(=O)(=O)NCc4ccco4)cc3)CC2)cc1 | active: 6.31 µM |
| C=CCn1cccc(C(=O)Nc2ccc(SC)cc2)c1=O | inconclusive [inhibitor, partial curve] |
| COc1ccc(NC(=O)COc2ccc(C(=O)c3ccc(F)cc3)cc2)cc1S(N)(=O)=O | inconclusive [inhibitor, single point] |
| O=C(CCc1ccc(S(=O)(=O)N2CCOCC2)cc1)NCCCN1CCCC1=O | inactive |
